# Screen size: about 310,000 compounds; about 14,000 (4.5%) showed an effect of 50% or more. The effect is printed as a negative number. The list shows a part of the results.
# Molecular target: human ether-à-go-go-related gene (hERG) potassium channel (human, UniProt Q12809)
# Assay: primary screen, population patch clamp on CHO cells stably expressing hERG
# 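Note: peak tail current of the secondary pulse compared with the same well before compound.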
# human ether-à-go-go-related gene (hERG) potassium channel, sequence (Q12809 whole entry, looked up): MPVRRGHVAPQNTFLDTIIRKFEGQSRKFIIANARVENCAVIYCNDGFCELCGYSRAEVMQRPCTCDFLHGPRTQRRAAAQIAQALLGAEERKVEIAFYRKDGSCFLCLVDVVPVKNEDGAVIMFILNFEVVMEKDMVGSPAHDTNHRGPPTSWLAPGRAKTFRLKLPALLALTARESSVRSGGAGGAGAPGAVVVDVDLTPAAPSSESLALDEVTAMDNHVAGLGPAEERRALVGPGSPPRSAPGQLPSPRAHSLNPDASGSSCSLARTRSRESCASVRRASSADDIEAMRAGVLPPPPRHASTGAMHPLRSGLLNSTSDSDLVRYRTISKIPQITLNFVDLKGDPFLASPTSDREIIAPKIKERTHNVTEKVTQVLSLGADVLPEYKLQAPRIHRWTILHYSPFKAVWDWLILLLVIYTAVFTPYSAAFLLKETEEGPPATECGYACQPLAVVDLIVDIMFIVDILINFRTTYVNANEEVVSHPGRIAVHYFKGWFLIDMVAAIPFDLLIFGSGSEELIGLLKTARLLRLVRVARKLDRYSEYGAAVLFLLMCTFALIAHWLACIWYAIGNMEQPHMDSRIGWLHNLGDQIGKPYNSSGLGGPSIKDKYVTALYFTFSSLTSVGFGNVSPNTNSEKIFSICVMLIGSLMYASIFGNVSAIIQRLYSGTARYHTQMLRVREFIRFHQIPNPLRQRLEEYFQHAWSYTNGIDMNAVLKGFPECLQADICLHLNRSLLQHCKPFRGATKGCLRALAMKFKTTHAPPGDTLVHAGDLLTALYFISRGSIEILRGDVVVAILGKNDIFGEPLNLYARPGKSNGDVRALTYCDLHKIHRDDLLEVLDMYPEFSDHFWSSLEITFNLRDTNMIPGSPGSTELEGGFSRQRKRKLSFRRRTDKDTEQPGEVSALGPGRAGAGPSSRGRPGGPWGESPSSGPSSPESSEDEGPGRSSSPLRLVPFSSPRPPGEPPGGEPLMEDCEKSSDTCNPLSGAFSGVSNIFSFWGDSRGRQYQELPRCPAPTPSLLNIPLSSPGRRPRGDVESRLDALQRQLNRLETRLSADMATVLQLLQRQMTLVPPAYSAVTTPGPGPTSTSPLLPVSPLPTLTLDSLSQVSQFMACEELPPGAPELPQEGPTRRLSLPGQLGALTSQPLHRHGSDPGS
row,SMILES,"hERG current change (%, negative = inhibition) at 10uM [%]"
1,O=C(O)/C=C/C(=O)Nc1ccc(Cl)c(C(=O)O)c1,17.8
2,CCc1ccc(N2C(=O)Cc3c2nc(N)c(C#N)c3N)cc1,5.29
3,Cc1ccc(Nc2nnc(SCC(=O)c3ccc(O)cc3O)s2)cc1,18.4
4,Cn1nc(C(=O)Nc2cccnc2)c2ccccc2c1=O,1.21
5,C#CCOc1ccc(/C=C2/C(=O)ON=C2C)cc1Br,16.2
6,Cc1cccc2sc(NC(=O)CN3C(=O)NC4(CCCC4)C3=O)nc12,-16.3
7,Cc1ccc(CN2CCN(/N=C\C(Br)=C\c3ccccc3)CC2)cc1,-14.9
8,NC1=NC(=O)C(Cc2ccc(Br)cc2)S1 (stereo not drawn),14.8
9,O=C(C1CC1)N(Cc1nc2ccccc2c(=O)[nH]1)Cc1cccs1,-6.11
10,Cc1c(N(C)S(=O)(=O)c2cccc(C(=O)NC(C)C)c2)c(=O)n(-c2ccccc2)n1C,26.7
11,COc1ccc(-c2nc3c(c(=O)[nH]c(=O)n3Cc3ccccc3)n2CCO)cc1,21.2
12,O=C(CN(Cc1ccccc1Cl)C(=O)Cn1nnc(-c2cccs2)n1)NCC1CCCO1 (stereo not drawn),-12.3
13,CCOC(=O)N(c1ccccc1)P1(=S)OCC(C)O1 (stereo not drawn),14.6
14,Cc1ccccc1C(OCC(O)CN1CCN(CCO)CC1)c1ccccc1.O=C(O)C(=O)O (stereo not drawn),-12.1
15,Cc1nn(-c2ccccc2)c2sc(C(=O)NC3CC3)cc12,-1.38
16,O=C(NCCCN1CCOCC1)c1ccc2c(c1)N(Cc1cccc(Cl)c1)C(=O)CS2,-16.7
17,Cc1nnsc1C(=O)N1CCN(c2ccc(C#N)cn2)CC1,-25.2
18,CCN(CC)S(=O)(=O)c1ccc(Cl)c(NC(=S)NC(=O)C2CCCC2)c1,4.83
19,CCOc1cccc2cc(C(=O)N3CCN(C/C=C/c4ccccc4)CC3)c(=O)oc12,-28.8
20,COCC(=O)N1CCC(Oc2ccc(C(=O)NCc3cc(C(C)C)no3)cc2)CC1,-2.22
21,CCOc1ccc(S(=O)(=O)NNS(=O)(=O)c2ccc(C)cc2C)cc1,13.4
22,NS(=O)(=O)c1ccccc1NC(=O)c1c(O)c2ccccc2[nH]c1=O,18.4

row,SMILES,"hERG current change (%, negative = inhibition) at 10uM [%]"
1,Cc1cccc(C(=O)NCCN2CCOCC2)c1[N+](=O)[O-],4.8
2,CC(=O)/C=C(\C)Nc1c(C)n(C)n(-c2ccccc2)c1=O,22.6
3,Cc1c(C(=O)N(C)C)c2ccc(Cl)cc2n1O,15.6
4,O=C(CNC(=O)c1ccccc1F)NCCN1C(=O)S/C(=C\c2ccc3c(c2)OCO3)C1=O,-13.7
5,COC(=O)c1ccccc1OCCCOc1ccc(C=O)cc1OC,-4.02
6,Cc1nc(C)c(/C(O)=C/c2nc3ccccc3oc2=O)s1,13.2
7,CCc1ccc(OCc2nnc(SCCN3CCOCC3)n2CC)cc1.O=C(O)C(=O)O,-22.6
8,Cc1nc(N2CCOCC2)c2c(C)c(C(=O)Nc3ccc(F)cc3Cl)sc2n1,-3.4
9,COc1ccc(NC(=S)N2CCN(CCN=CC3=C(O)CC(c4ccccc4)CC3=O)CC2)cc1 (stereo not drawn),-45.7
10,Cc1ccc(CSc2nc(-c3ccccc3)c(C#N)c(=O)[nH]2)cc1,15.2
11,O=C1C=C(c2ccccc2)CC(/C=C/c2ccccc2)C1 (stereo not drawn),-2.91
12,Clc1ccc2nnnc(-c3ccccc3)c2c1,-9.98
13,CCN(CC)CCNC(=O)Cn1cnc2sc(C)c(S(=O)(=O)N3CCN(c4ncccn4)CC3)c2c1=O,10.5
14,Nc1c(C(=O)CSc2nncn2-c2ccccc2)c(=O)[nH]c(=O)n1C1CC1,2.23
15,CCC(CC)C(=O)Nc1c(C)n(C)n(-c2ccccc2)c1=O,6.19
16,CNC(=S)N1N=C(c2ccc(Br)cc2)CC1c1ccc(OC)cc1 (stereo not drawn),13.3
17,O=C(c1csc2ccccc12)N1CCN(c2ccccn2)CC1,-22.1
18,COc1ccc(C(=O)N2CCCC(CO)(Cc3ccccc3C)C2)o1 (stereo not drawn),-8.3
19,CCOC(=O)c1cnn(-c2ccccc2)c1NC(=O)c1ccc(C)cc1,-26.4
20,CCc1ccc(NC(=O)CCc2c(C)nn(-c3ccc(N4CCOCC4)nn3)c2C)cc1,-5.77
21,S=c1nc(-c2ccccc2Cl)[nH][nH]1,21.4
22,O=C(Nc1ccc(Cl)cc1)C1CCCN(C2=NS(=O)(=O)c3ccccc32)C1 (stereo not drawn),-60

row,SMILES,"hERG current change (%, negative = inhibition) at 10uM [%]"
1,COc1cc(NC(=O)c2cc3ccccc3cc2OC)ccc1NC(=O)c1cccs1,9.15
2,Cc1[nH]n(-c2ccccc2)c(=O)c1/C=N/NC(=O)c1cccc([N+](=O)[O-])c1,7.53
3,COc1ccc(C2C(CC(=O)O)=C(Nc3ccccc3)C(=O)N2c2ccccc2)cc1 (stereo not drawn),22
4,Cc1cccc(-c2sc(Nc3ccccc3)n[n+]2-c2ccccc2)c1.[Cl-],-72
5,CCC(=O)N1CCc2cc(S(=O)(=O)NC(Cc3ccccc3)C(=O)NC3CCCC3)ccc21 (stereo not drawn),17.5
6,CC(=O)Nc1cccc(C(=O)OCC(=O)Nc2c(C)nn(-c3ccccc3)c2C)c1,12.1
7,CCOP(=O)(OCC)C(Nc1cccc([N+](=O)[O-])c1)c1ccccc1 (stereo not drawn),-18.4
8,O=C(Nc1ccccc1)C1CC=CCC1C(=O)OCC1CCCO1 (stereo not drawn),-5.39
9,Cc1cc(-c2nnc(SCC(=O)NC3CCCC3)o2)no1,-4.1
10,CCOc1ccccc1NC(=O)NC1CC2CCCC(C1)N2Cc1nnnn1CCc1ccccc1 (stereo not drawn),-5.67
11,Cc1[nH]c(=O)[nH]c(=O)c1/C=C/C(=O)OCC(C)C,-4.37
12,O=[N+]([O-])c1cn(-c2nc(-c3ccco3)cc(C(F)(F)F)n2)cn1,2.87
13,Cc1cc(C)n(Cc2nc3ccccc3n2C)n1,10.3
14,O=C(NCC1OCCc2ccccc21)c1ccc(NC(=O)c2ccccc2Cl)cc1 (stereo not drawn),17.5
15,CC(C)(C)c1cc(NC(=O)c2cccc(S(=O)(=O)N3CCOCC3)c2)no1,-6.32
16,Cc1nn(Cc2cccc(C(=O)NC3CCCCC3)c2)c(C)c1Cl,-16.1
17,COc1ccc(OC)c(C2C(C#N)=C(N)N(N(C)C)C3=C2C(=O)CC(C)(C)C3)c1 (stereo not drawn),1.73
18,COc1ccc(-n2nc([N+](=O)[O-])c(=NC3CCN(Cc4ccccc4)CC3)n2O)cc1,-39.8
19,O=C(OCC(=O)N1CCCc2ccccc21)c1ccc(Br)o1,0.832
20,CC(=O)c1ccc(OCc2ccc(Oc3c(Cl)cccc3[N+](=O)[O-])cc2)cc1,18.4
21,Cn1c(=O)c2c(nc(SCC(=O)Nc3ccccc3N3CCCCC3)n2C)n(C)c1=O,-54
22,Cc1cc(C(=O)N2CCCC(N3CCN(Cc4ccc5c(c4)OCO5)CC3)C2)n[nH]1 (stereo not drawn),-15.4

row,SMILES,"hERG current change (%, negative = inhibition) at 10uM [%]"
1,Cc1cccc(NC(=O)CN2CCc3cc4c(cc3C2C)OCCCO4)c1 (stereo not drawn),-4.13
2,COc1ccccc1C(=O)NCCC(=O)NCC1CCCO1 (stereo not drawn),-11.2
3,Cc1ccccc1C(=O)NC1CCN(Cc2nnnn2CCc2ccccc2)CC1,-8.14
4,Cc1cccc(C(=O)OCN2C(=O)c3ccccc3C2=O)c1[N+](=O)[O-],19.7
5,O=C(/C=C/c1ccco1)NCC1(c2ccccc2)CCCC1,-4.49
6,CCOc1ccc(S(=O)(=O)Nc2cccc(Cl)c2)cc1,6.4
7,CCOC(=O)C1CCN(C(=O)C2CCN(S(=O)(=O)c3c(C)noc3C)CC2)CC1,-12.6
8,CCOCCCNC(=O)Cn1ncc2c(=O)oc3ccccc3c21,-7.38
9,CN(C)CCCn1c(NC(=O)C2CCCCC2)nc2ccccc21,-27.3
10,CCOC(=O)[C@@H]1[C@H]2COc3ccc(Br)cc3[C@H]2N2C(=O)N(c3cccc(F)c3)C(=O)[C@]12C,-1.18
11,CN(NS(C)(=O)=O)c1c(C#N)c(C(F)(F)F)nn1C,11.4
12,CC(CCc1ccccc1)NC(=O)COC(=O)c1ccc(S(C)(=O)=O)c([N+](=O)[O-])c1 (stereo not drawn),-2.97
13,Br.O=C(CN1C2=NCCN2c2ccccc21)C12CC3CC(CC(C3)C1)C2,-72.7
14,O=S(=O)(NCCN1CCOCC1)c1ccc2c(c1)OCCO2,20.9
15,O=C(CSC1c2ccccc2C(=O)N1c1ccccc1)N1CCOCC1 (stereo not drawn),0.586
16,COc1ccc(C(=O)Nc2c(F)c(F)c(F)c(F)c2F)c(OC)c1,8.63
17,Cc1ccc(CN2CCN(C(=O)CCc3ccccc3)CC2)cc1,-19.1
18,CC1CCN(S(=O)(=O)c2ccc3[nH]c(=O)cc(C(=O)O)c3c2)CC1,0.2
19,CC(=O)Nc1nc2c(ccc3ccccc32)s1,4.92
20,Cn1c(CNC(=O)CCNC(=O)c2ccccc2F)cc(=O)n(C)c1=O,17.3
21,COc1ccc(CC(=O)Nc2cc(C)ccn2)cc1,6.87

# From publication PMC4336329 (PLoS ONE, 2015)
